Reference: PubChem BioAssay (Tox21)
Where “and” joins values, the source holds several entries; their conditions need not be identical. Identical values can stand only once. Inconclusive means that the source gave no clear call. Such entries were picked first, then a sample of the others. A potency beside an inconclusive call is a rough fit, not a confirmed value. Calls of active or inactive are those of the source. Calls follow the shape of the dose curve; as a rule, active = well fitted curve in the direction sought with a large enough effect in the repeat runs; inconclusive = weak or mixed curves; inactive = no such curve, though single readings can be large; an effect the other way counts as inactive or inconclusive.
Potency is read from the fitted curve at half-maximal effect; tags tell the direction and shape of the fitted curve.

Assay: qHTS RealTime-Glo MT Cell Viability Assay in HepG2 cells - 8 hour (AID 1224873); also: nearly all actives have a fitted effect of over 55% in size
Conditions: RealTime-Glo luminescence; series mostly up to 76.8 µM
Procedure, shortened: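 HepG2 cells mixed with RealTime-Glo MT reagents (NanoLuc plus cell-permeant prosubstrate) were seeded at 600 cells/well, incubated 5 h at 37 C/5% CO2, then pinned with compounds in DMSO; nonlytic luminescence tracked viability during 40 h treatment.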
In the case of `CCCCCCCc1ccc(O)cc1`, the Potency is reported as inconclusive: 30.9 µM [falling, partial curve, poor fit]. In the case of `Cc1cc(C(C)(C)c2cc(C)c(O)c(C)c2)cc(C)c1O`, the Potency is reported as inconclusive: 53.1 µM [falling, partial curve, poor fit]. For `CC1(C)[C@H](/C=C2\CCSC2=O)[C@@H]1C(=O)OCc1coc(Cc2ccccc2)c1`, the Potency was inconclusive: 24.5 µM [falling, partial curve]. For `O=S1OC[C@@H]2[C@H](CO1)[C@]1(Cl)C(Cl)=C(Cl)[C@@]2(Cl)C1(Cl)Cl` (some centres not stated), the Potency was inconclusive: 54.9 µM [falling, single point]. In the case of `ClC1=C(Cl)[C@]2(Cl)[C@H]3[C@H]([C@@H]4C=C[C@H]3C4)[C@@]1(Cl)C2(Cl)Cl`, the Potency is reported as inconclusive: 54.9 µM [falling, single point]. With `Clc1ccc(C(Cl)(Cl)Cl)cc1Cl` the Potency was inconclusive: 53.8 µM [falling, single point]. For `CN(C)c1ccc(N=O)cc1`, the Potency was active: 49.1 µM and active: 24.5 µM. In the case of `CN(C)c1ccc(C(=O)c2ccc(N(C)C)cc2)cc1`, the Potency is reported as inconclusive: 43.6 µM [falling, partial curve]. For `CC(C)OC(=O)C(O)(c1ccc(Cl)cc1)c1ccc(Cl)cc1`, the Potency was inconclusive: 54.9 µM [falling, single point]. In the case of `COc1ccc(C(c2ccc(OC)cc2)C(Cl)(Cl)Cl)cc1`, the Potency is reported as inconclusive: 38.7 µM [phenotype inactive, partial curve]. With `OC(c1ccc(Cl)cc1)(c1ccc(Cl)cc1)c1cccnc1` the Potency was inconclusive: 24.5 µM [falling, partial curve]. For `C=CCC1=C(C)C(OC(=O)C2C(C=C(C)C)C2(C)C)CC1=O` (configuration not stated), the Potency was inconclusive: 46.3 µM [phenotype inactive, partial curve].

Assay: qHTS RealTime-Glo MT Cell Viability Assay in HEK293 cells - 40 hour (AID 1224874); also: nearly all actives have a fitted effect of over 50% in size
Conditions: RealTime-Glo luminescence; max response: stronger effect = lower value
Procedure, shortened: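 Tox21 screen in HEK293 using RealTime-Glo MT chemistry, with cells and reagent co-dispensed. Luminescence proportional to viable cell number was captured at intervals during 40 h compound exposure at 37 C.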
For `O=C(Nc1ccccc1-c1ccc(Cl)cc1)c1cccnc1Cl`, the Potency was inconclusive: 51.9 µM [cytotoxic, partial curve]. With `CC1(C)[C@H](/C=C2\CCSC2=O)[C@@H]1C(=O)OCc1coc(Cc2ccccc2)c1` the Potency was inconclusive: 49 µM [cytotoxic, single point]. In the case of `O=S1OC[C@@H]2[C@H](CO1)[C@]1(Cl)C(Cl)=C(Cl)[C@@]2(Cl)C1(Cl)Cl` (some centres not stated), the Potency is reported as inconclusive: 49 µM [cytotoxic, partial curve]. With `ClC1=C(Cl)[C@]2(Cl)[C@H]3[C@H]([C@@H]4C=C[C@H]3C4)[C@@]1(Cl)C2(Cl)Cl` the Potency was active: 48.9 µM and active: 43.6 µM. In the case of `CCCCNC(=O)n1c(NC(=O)OC)nc2ccccc21`, the Potency is reported as inconclusive: 11 µM [cytotoxic, full curve]. In the case of `CCCCOC(=O)c1ccccc1C(=O)OCc1ccccc1`, the Potency is reported as inconclusive: 27.5 µM [cytotoxic, partial curve, poor fit] and inconclusive: 54.9 µM [cytotoxic, single point]. For `CC(C)Oc1cc(-n2nc(C(C)(C)C)oc2=O)c(Cl)cc1Cl`, the Potency was inconclusive: 38.3 µM [cytotoxic, partial curve]. In the case of `CN(C)c1ccc(C(=O)c2ccc(N(C)C)cc2)cc1`, the Potency is reported as inconclusive: 3.06 µM [cytotoxic, full curve]. In the case of `CC(C)OC(=O)C(O)(c1ccc(Cl)cc1)c1ccc(Cl)cc1`, the Potency is reported as active: 24.5 µM. In the case of `CC(C)(C)c1cc(O)ccc1O`, the Potency is reported as inconclusive: 5.49 µM [rising, full curve] and inconclusive: 6.92 µM [rising, full curve]. For `OC(c1ccc(Cl)cc1)(c1ccc(Cl)cc1)C(Cl)(Cl)Cl`, the Potency was inconclusive: 43.6 µM [cytotoxic, partial curve]. For `c1ccc(P(c2ccccc2)c2ccccc2)cc1`, the Potency was inconclusive: 31.5 µM [cytotoxic, partial curve]. With `Oc1ccc(-c2ccccc2)cc1` the Potency was inconclusive: 21.6 µM [cytotoxic, partial curve] and inconclusive: 19.5 µM [cytotoxic, partial curve]. In the case of `CC(C)NC(=O)N1CC(=O)N(c2cc(Cl)cc(Cl)c2)C1=O`, the Potency is reported as inconclusive: 55 µM [cytotoxic, single point] and inconclusive: 43.6 µM [cytotoxic, partial curve]. In the case of `CC(=O)[O][Pb]([c]1ccccc1)([c]1ccccc1)[c]1ccccc1`, the Potency is reported as active: 0.389 µM.
